{
  "source": "the supplement of paper PMC8728848",
  "assay_in_all_cases": "glycan array binding signal (z-score within array); higher = stronger binding",
  "settings_in_all_cases": "glycan notation: IUPAC condensed, linker removed",
  "key": {"Fuc(a1-2)Gal": {"molecular_target": "Fuc(a1-2)Gal", "how_it_was_run": "(§1)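 Glycan array binding is given as a within-array Z-score, which can be read as non-binding when negative. The arrays, 3228 of them, came from the Consortium for Functional Glycomics database and were retained only where the protein sequence was available. Z-scores were averaged across arrays of the same protein sequence at different concentrations or buffers and across linkers.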"}, "Fuc(a1-2)Gal(b1-3)GalNAc": {"molecular_target": "Fuc(a1-2)Gal(b1-3)GalNAc", "how_it_was_run": "as §1"}, "[1]": {"molecular_target": "Fuc(a1-2)Gal(b1-3)GalNAc(a1-3)[Fuc(a1-2)]Gal(b1-4)Glc", "how_it_was_run": "as §1"}, "[2]": {"molecular_target": "Fuc(a1-2)Gal(b1-3)GalNAc(a1-3)[Fuc(a1-2)]Gal(b1-4)GlcNAc", "how_it_was_run": "as §1"}, "[3]": {"molecular_target": "Fuc(a1-2)Gal(b1-3)GalNAc(b1-3)Gal", "how_it_was_run": "as §1"}, "[4]": {"molecular_target": "Fuc(a1-2)Gal(b1-3)GalNAc(b1-3)Gal(a1-4)Gal(b1-4)Glc", "how_it_was_run": "as §1"}, "[5]": {"molecular_target": "Fuc(a1-2)Gal(b1-3)GalNAc(b1-4)[Neu5Ac(a2-3)]Gal(b1-4)Glc", "how_it_was_run": "as §1"}, "Fuc(a1-2)Gal(b1-3)GlcNAc": {"molecular_target": "Fuc(a1-2)Gal(b1-3)GlcNAc", "how_it_was_run": "as §1"}, "[6]": {"molecular_target": "Fuc(a1-2)Gal(b1-3)GlcNAc(b1-2)Man(a1-3)[Fuc(a1-2)Gal(b1-3)GlcNAc(b1-2)Man(a1-6)]Man(b1-4)GlcNAc(b1-4)GlcNAc", "how_it_was_run": "as §1"}, "[7]": {"molecular_target": "Fuc(a1-2)Gal(b1-3)GlcNAc(b1-2)Man(a1-3)[Fuc(a1-2)Gal(b1-3)GlcNAc(b1-2)Man(a1-6)]Man(b1-4)GlcNAc(b1-4)[Fuc(a1-6)]GlcNAc", "how_it_was_run": "as §1"}, "[8]": {"molecular_target": "Fuc(a1-2)Gal(b1-3)GlcNAc(b1-3)Gal(b1-4)Glc", "how_it_was_run": "as §1"}, "[9]": {"molecular_target": "Fuc(a1-2)Gal(b1-3)GlcNAc(b1-3)GalNAc", "how_it_was_run": "as §1"}, "[10]": {"molecular_target": "Fuc(a1-2)Gal(b1-3)GlcNAc(b1-3)[Fuc(a1-2)Gal(b1-3)GlcNAc(b1-6)]GalNAc", "how_it_was_run": "as §1"}, "[11]": {"molecular_target": "Fuc(a1-2)Gal(b1-3)GlcNAc(b1-3)[Gal(b1-4)GlcNAc(b1-6)]Gal(b1-4)Glc", "how_it_was_run": "as §1"}, "[12]": {"molecular_target": "Fuc(a1-2)Gal(b1-3)GlcNAc(b1-3)[Neu5Ac(a2-6)Gal(b1-4)GlcNAc(b1-6)]Gal(b1-4)Glc", "how_it_was_run": "as §1"}, "[13]": {"molecular_target": "Fuc(a1-2)Gal(b1-3)GlcNAc6S", "how_it_was_run": "as §1"}, "[14]": {"molecular_target": "Fuc(a1-2)Gal(b1-3)[Fuc(a1-4)]GlcNAc", "how_it_was_run": "as §1"}, "[15]": {"molecular_target": "Fuc(a1-2)Gal(b1-3)[Fuc(a1-4)]GlcNAc(b1-2)Man(a1-3)[Fuc(a1-2)Gal(b1-3)[Fuc(a1-4)]GlcNAc(b1-2)Man(a1-3)]Man(b1-4)GlcNAc(b1-4)GlcNAc", "how_it_was_run": "as §1"}, "[16]": {"molecular_target": "Fuc(a1-2)Gal(b1-3)[Fuc(a1-4)]GlcNAc(b1-2)Man(a1-3)[Fuc(a1-2)Gal(b1-3)[Fuc(a1-4)]GlcNAc(b1-2)Man(a1-6)]Man(b1-4)GlcNAc(b1-4)[Fuc(a1-6)]GlcNAc(b1-4)[Fuc(a1-6)]GlcNAc", "how_it_was_run": "as §1"}, "[17]": {"molecular_target": "Fuc(a1-2)Gal(b1-3)[Fuc(a1-4)]GlcNAc(b1-3)[Fuc(a1-3)[Gal(b1-4)]GlcNAc(b1-6)]Gal(b1-4)Glc", "how_it_was_run": "as §1"}, "[18]": {"molecular_target": "Fuc(a1-2)Gal(b1-3)[Fuc(a1-4)]GlcNAc(b1-3)[Gal(b1-4)GlcNAc(b1-6)]Gal(b1-4)Glc", "how_it_was_run": "as §1"}, "Fuc(a1-2)Gal(b1-4)Glc": {"molecular_target": "Fuc(a1-2)Gal(b1-4)Glc", "how_it_was_run": "as §1"}, "Fuc(a1-2)Gal(b1-4)Glc6S": {"molecular_target": "Fuc(a1-2)Gal(b1-4)Glc6S", "how_it_was_run": "as §1"}, "Fuc(a1-2)Gal(b1-4)GlcNAc": {"molecular_target": "Fuc(a1-2)Gal(b1-4)GlcNAc", "how_it_was_run": "as §1"}, "[19]": {"molecular_target": "Fuc(a1-2)Gal(b1-4)GlcNAc(b1-2)Man", "how_it_was_run": "as §1"}, "[20]": {"molecular_target": "Fuc(a1-2)Gal(b1-4)GlcNAc(b1-2)Man(a1-3)[Fuc(a1-2)Gal(b1-4)GlcNAc(b1-2)Man(a1-6)]Man(b1-4)GlcNAc(b1-4)GlcNAc", "how_it_was_run": "as §1"}, "[21]": {"molecular_target": "Fuc(a1-2)Gal(b1-4)GlcNAc(b1-2)Man(a1-3)[Fuc(a1-2)Gal(b1-4)GlcNAc(b1-2)Man(a1-6)]Man(b1-4)GlcNAc(b1-4)[Fuc(a1-6)]GlcNAc", "how_it_was_run": "as §1"}, "[22]": {"molecular_target": "Fuc(a1-2)Gal(b1-4)GlcNAc(b1-2)[Fuc(a1-2)Gal(b1-4)GlcNAc(b1-4)]Man(a1-3)[Fuc(a1-2)Gal(b1-4)GlcNAc(b1-2)Man(a1-6)]Man(b1-4)GlcNAc(b1-4)GlcNAc", "how_it_was_run": "as §1"}, "[23]": {"molecular_target": "Fuc(a1-2)Gal(b1-4)GlcNAc(b1-3)Gal(b1-4)GlcNAc", "how_it_was_run": "as §1"}, "[24]": {"molecular_target": "Fuc(a1-2)Gal(b1-4)GlcNAc(b1-3)Gal(b1-4)GlcNAc(b1-2)Man(a1-3)[Fuc(a1-2)Gal(b1-4)GlcNAc(b1-3)Gal(b1-4)GlcNAc(b1-2)Man(a1-6)]Man(b1-4)GlcNAc(b1-4)GlcNAc", "how_it_was_run": "as §1"}},
  "note": "This is one part of the list.",
  "data": [
    {"binder": "GS13455A-bfa-343-25-343 (Bacteroides fragilis) (protein) KDEIQIVDQDTSWQMDNKYIEEDIREQLGIDPFTDLVYLGYYGNPYTQLEAINDLVNTTLVGKNELSFKVKVTKPYKEDIKVNLMKEDKLVTDFPEMAEGIPLFPSENCTFEGGVLKAGELETTVKLTLKDVEKLNNLSGYVMAIKLTMEGSHEHLAIARTRSSYFVKLNLSIRLDNIDSSNKKIEGKGFNKEISFKSDIRPDKLGSLNDGNFTANNWYTSNANNYLTIILPEKQSLKGFRLDTNTSPSGSYMLKSCRVMVETPDGNWVNHGVFDRKSMDGIAYISFKKPVECTKVRFENMMAFNGRFSVDVNEVTAFR", "values": [
      {"measurement": "glycan array binding signal (z-score)", "setting": "Fuc(a1-2)Gal", "value": -0.592},
      {"measurement": "glycan array binding signal (z-score)", "setting": "Fuc(a1-2)Gal(b1-3)GalNAc", "value": 0.368},
      {"measurement": "glycan array binding signal (z-score)", "setting": "[1]", "value": -0.347},
      {"measurement": "glycan array binding signal (z-score)", "setting": "[2]", "value": 0.115},
      {"measurement": "glycan array binding signal (z-score)", "setting": "[3]", "value": -0.261},
      {"measurement": "glycan array binding signal (z-score)", "setting": "[4]", "value": -0.354},
      {"measurement": "glycan array binding signal (z-score)", "setting": "[5]", "value": -0.834},
      {"measurement": "glycan array binding signal (z-score)", "setting": "Fuc(a1-2)Gal(b1-3)GlcNAc", "value": 0.593},
      {"measurement": "glycan array binding signal (z-score)", "setting": "[6]", "value": -0.69},
      {"measurement": "glycan array binding signal (z-score)", "setting": "[7]", "value": -0.058},
      {"measurement": "glycan array binding signal (z-score)", "setting": "[8]", "value": -0.067},
      {"measurement": "glycan array binding signal (z-score)", "setting": "[9]", "value": -0.048},
      {"measurement": "glycan array binding signal (z-score)", "setting": "[10]", "value": -0.314},
      {"measurement": "glycan array binding signal (z-score)", "setting": "[11]", "value": -0.195},
      {"measurement": "glycan array binding signal (z-score)", "setting": "[12]", "value": 0.11},
      {"measurement": "glycan array binding signal (z-score)", "setting": "[13]", "value": 0.206},
      {"measurement": "glycan array binding signal (z-score)", "setting": "[14]", "value": -0.477},
      {"measurement": "glycan array binding signal (z-score)", "setting": "[15]", "value": 0.956},
      {"measurement": "glycan array binding signal (z-score)", "setting": "[16]", "value": -0.263},
      {"measurement": "glycan array binding signal (z-score)", "setting": "[17]", "value": 0.296},
      {"measurement": "glycan array binding signal (z-score)", "setting": "[18]", "value": -0.352},
      {"measurement": "glycan array binding signal (z-score)", "setting": "Fuc(a1-2)Gal(b1-4)Glc", "value": -0.243},
      {"measurement": "glycan array binding signal (z-score)", "setting": "Fuc(a1-2)Gal(b1-4)Glc6S", "value": -0.139},
      {"measurement": "glycan array binding signal (z-score)", "setting": "Fuc(a1-2)Gal(b1-4)GlcNAc", "value": 0.741},
      {"measurement": "glycan array binding signal (z-score)", "setting": "[19]", "value": -0.282},
      {"measurement": "glycan array binding signal (z-score)", "setting": "[20]", "value": -0.023},
      {"measurement": "glycan array binding signal (z-score)", "setting": "[21]", "value": -0.87},
      {"measurement": "glycan array binding signal (z-score)", "setting": "[22]", "value": -0.029},
      {"measurement": "glycan array binding signal (z-score)", "setting": "[23]", "value": -0.734},
      {"measurement": "glycan array binding signal (z-score)", "setting": "[24]", "value": 0.565}
    ]}
  ]
}
